Consider 39 molecules from the supplement of paper PMC9135407.

In this assay the test system is primary human hepatic stellate cells (donor 1). As to the kind of experiment: scaled lipid accumulation score (0 = DMSO-like, 1 = nortriptyline-like); higher = stronger HSC inactivation (lipid re-accumulation), active = hit call of the paper. The note with it: 48 h.
Where [1] appears, read: library stock concentration: 80 uM.
[2] abbreviates: library stock concentration: 400 uM.
Setting [3] is: library stock concentration: 2 mM.
Setting [4] is: library stock concentration: 10 mM.
The mark [5] stands for this setting: library stock concentration: 3.33 mM.

Values joined by “and” are separate entries in the source; they are usually repeats but may differ in a detail not shown here. Equal values may be shown once. Where a name gives a salt, the structure may show the parent alone. Screen size: about 5,800 compounds; about 620 (11%) showed activity.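 How the source made its calls: active = score above a cut-off or among the top three wells of a plate; in these data no inactive exceeds 0.85.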 This is a selection; strong and weak results do not stand in their true shares. Bounds are passed on as bounds.

Consider `CN1CCN(CCOc2cc(OC3CCOCC3)c3c(Nc4c(Cl)ccc5c4OCO5)ncnc3c2)CC1`, for which the “scaled lipid accumulation score” value runs as follows: under setting [1], inactive: 0.151; under setting [2], inactive: 0.172; under setting [3], inactive: 0.419; under setting [4], inactive: 0.706.

`CN1CCN(CCOc2cc(OC3CCOCC3)c3c(Nc4c(Cl)ccc5c4OCO5)ncnc3c2)CC1` [Saracatinib (AZD0530)]: the “scaled lipid accumulation score” value by setting is: under setting [5], inactive: 0.783; under setting [4], inactive: 0.661.

`O=C(NCC(O)CO)c1c(I)c(C(=O)NCC(O)CO)c(I)c(N(CCO)C(=O)CO)c1I` (stereo unspecified) [Ioversol]: the “scaled lipid accumulation score” value is inactive: ≤ 0.

With `CO/N=C(\C(=O)N[C@@H]1C(=O)N2C(C(=O)O)=C(COC(N)=O)CS[C@H]12)c1ccco1` [Cefuroxime sodium], the “scaled lipid accumulation score” value is, setting by setting: (library stock concentration: 4.5 mM) inactive: ≤ 0; under setting [4], inactive: ≤ 0.

On to `CO/N=C(\C(=O)N[C@@H]1C(=O)N2C(C(=O)O)=C(COC(N)=O)CS[C@H]12)c1ccco1` [Cefuroxime sodium salt], for which the “scaled lipid accumulation score” value is inactive: ≤ 0.

As to `CO/N=C(\C(=O)N[C@@H]1C(=O)N2C(C(=O)O)=C(COC(N)=O)CS[C@H]12)c1ccco1` [Cefuroxime], the “scaled lipid accumulation score” value under setting [4] was inactive: ≤ 0.

With `C[C@@H](N)c1ccc(C(=O)Nc2ccnc3[nH]ccc23)cc1`, the “scaled lipid accumulation score” value is inactive: ≤ -0.009 under setting [1], inactive: ≤ -0.009 under setting [2] and inactive: 0.069 under setting [3].

On to `Nc1ccc(S(=O)(=O)Nc2ccnn2-c2ccccc2)cc1` [Sulfaphenazole], for which the “scaled lipid accumulation score” value is inactive: 0.045. In addition, under setting [4], the “scaled lipid accumulation score” value is inactive: ≤ 0.

Take `FC(F)(Cl)C(F)(F)Cl`: the “scaled lipid accumulation score” value under setting [4] was inactive: ≤ 0.

In the case of `C=CC(=O)Nc1ccc2ncnc(Nc3cccc(Br)c3)c2c1`, the “scaled lipid accumulation score” value is inactive: 0.014 under setting [5] and inactive: 0.802 under setting [4].

Consider `CCC(=O)c1c(O)cc(O)cc1O` [Flopropione], for which the “scaled lipid accumulation score” value is, setting by setting: under setting [5], inactive: ≤ 0; under setting [4], inactive: ≤ -0.001 and inactive: ≤ 0.

Turning to `COc1ccc(C2CC(c3c(O)cc(C)oc3=O)=NCCS2)c(OC)c1` (stereo unspecified), the “scaled lipid accumulation score” value under setting [4] is inactive: 0.164.

In the case of `CC1Cc2ccccc2N1NC(=O)c1ccc(Cl)c(S(N)(=O)=O)c1` (stereo unspecified), the “scaled lipid accumulation score” value under setting [4] was inactive: ≤ 0.

Take `CC1Cc2ccccc2N1NC(=O)c1ccc(Cl)c(S(N)(=O)=O)c1` (stereo unspecified) [Indapamide]: the “scaled lipid accumulation score” value is inactive: ≤ 0. For the same molecule, the “scaled lipid accumulation score” value under setting [5] was inactive: ≤ 0. In addition, the “scaled lipid accumulation score” value under setting [4] was inactive: 0.054 and inactive: ≤ 0.

Take `CCCS(=O)(=O)Nc1ccc(F)c(C(=O)c2c[nH]c3ncc(Cl)cc23)c1F`: the “scaled lipid accumulation score” value under setting [4] was active: 1.16.

Take `Nc1nc2[nH]c(=O)cnc2c(=O)[nH]1` [Isoxanthopterin]: under setting [4], the “scaled lipid accumulation score” value was inactive: ≤ -0.055.

Take `C[C@H]1O[C@@H](O[C@H]2[C@@H](O)C[C@H](O[C@H]3[C@@H](O)C[C@H](O[C@H]4CC[C@]5(C)C6C[C@@H](O)[C@]7(C)[C@@H](C8=CC(=O)OC8)CC[C@]7(O)C6CC[C@@H]5C4)O[C@@H]3C)O[C@@H]2C)C[C@H](O)[C@@H]1O` (stereo partly specified) [Digoxin]: the “scaled lipid accumulation score” value (library stock concentration: 2.6 mM) was active: 0.937.

As for `CC(C)(C)[C@]1(O)CCN2C[C@H]3c4ccccc4CCc4cccc(c43)[C@@H]2C1` [(+)-Butaclamol hydrochloride], the “scaled lipid accumulation score” value under setting [4] was inactive: 0.672.

As to `CC(C)(C)[C@]1(O)CCN2C[C@H]3c4ccccc4CCc4cccc(c43)[C@@H]2C1`, the “scaled lipid accumulation score” value under setting [4] was inactive: 0.691.

For the molecule `N[C@H](C(=O)O)c1cc(O)cc(O)c1`, the “scaled lipid accumulation score” value under setting [4] is inactive: ≤ 0.

As to `N[C@H](C(=O)O)c1cc(O)cc(O)c1` [(S)-3,5-Dihydroxyphenylglycine], the “scaled lipid accumulation score” value under setting [4] was inactive: ≤ -0.07.

As for `c1ccc(C(NCc2cccnc2)(c2ccccc2)c2ccccc2)cc1`, the “scaled lipid accumulation score” value under setting [4] was inactive: ≤ -0.07 and inactive: ≤ -0.001.

For `CC(=O)OC1CC2CCC1(C)C2(C)C` (stereo unspecified), the “scaled lipid accumulation score” value under setting [4] was inactive: ≤ 0.

For the molecule `O=S(=O)(NCCNC/C=C/c1ccc(Br)cc1)c1cccc2cnccc12`, under setting [4], the “scaled lipid accumulation score” value was active: 0.989.

As to `Cc1cccc(C#Cc2ccccc2)n1` [MPEP hydrochloride], the “scaled lipid accumulation score” value under setting [4] is inactive: 0.053.

On to `Cc1cccc(C#Cc2ccccc2)n1`, for which the “scaled lipid accumulation score” value under setting [5] was inactive: ≤ 0 and the “scaled lipid accumulation score” value under setting [4] was inactive: 0.052.

`Cc1cccc(C#Cc2ccccc2)n1` [6-Methyl-2-(phenylethynyl)pyridine hydrochloride]: under setting [4], the “scaled lipid accumulation score” value was inactive: ≤ -0.034.

With `CN(C1CCc2c(c3ccccc3n2CC(=O)O)C1)S(=O)(=O)c1ccc(F)cc1` (stereo unspecified), the “scaled lipid accumulation score” value (library stock concentration: 1 mM) is inactive: 0.083.

`C=C[C@@]1(C)C[C@@H](OC(=O)CS[C@@H]2C[C@H]3CC[C@@H](C2)N3C)[C@@]2(C)[C@@H]3C(=O)CC[C@@]3(CC[C@@H]2C)[C@@H](C)[C@@H]1O` [Retapamulin]: the “scaled lipid accumulation score” value under setting [4] was active: 0.947.

In the case of `C[C@H](O)C(=O)Nc1c(I)c(C(=O)NC(CO)CO)c(I)c(C(=O)NC(CO)CO)c1I` [Iopamidol], the “scaled lipid accumulation score” value was inactive: ≤ 0.

For the molecule `COC(=O)C1=C(C)NC(C)=C(C(=O)OCCSc2ccccc2)C1C` (stereo unspecified), the “scaled lipid accumulation score” value is inactive: 0.111 under setting [4] and inactive: 0.203 (library stock concentration: 13.8 mM).

Take `CCCCC/C=C\C\C=C/C=C/C=C/[C@@H](SC[C@H](N)C(=O)O)[C@@H](O)CCCC(=O)O` [Leukotriene E4]: the “scaled lipid accumulation score” value (library stock concentration: 100 uM) is inactive: 0.015.

Consider `O=c1cc[nH]c(=S)[nH]1` [2-Thiouracil], for which the “scaled lipid accumulation score” value runs as follows: under setting [5], inactive: 0.006; under setting [4], inactive: ≤ 0.

Turning to `O=c1cc[nH]c(=S)[nH]1` [2-thiouracil], the “scaled lipid accumulation score” value under setting [4] is inactive: ≤ -0.027.

Consider `CC(C)CC(=O)N[C@H](C(=O)N[C@H](C(=O)N[C@@H](CC(C)C)[C@@H](O)CC(=O)N[C@@H](C)C(=O)N[C@@H](CC(C)C)[C@@H](O)CC(=O)O)C(C)C)C(C)C` [Pepstatin a], for which, under “library stock concentration: 2.9 mM”, the “scaled lipid accumulation score” value was inactive: 0.001.

As for `CC(C)CC(=O)N[C@H](C(=O)N[C@H](C(=O)N[C@@H](CC(C)C)[C@@H](O)CC(=O)N[C@@H](C)C(=O)N[C@@H](CC(C)C)[C@@H](O)CC(=O)O)C(C)C)C(C)C` [Pepstatin], the “scaled lipid accumulation score” value (library stock concentration: 7.3 mM) was inactive: 0.005.

Regarding `CC(C)CC(=O)N[C@H](C(=O)N[C@H](C(=O)N[C@@H](CC(C)C)[C@@H](O)CC(=O)N[C@@H](C)C(=O)N[C@@H](CC(C)C)[C@@H](O)CC(=O)O)C(C)C)C(C)C` [Pepstatin A], the “scaled lipid accumulation score” value is inactive: 0.033.

For `CC(C)(C)c1ccc(-c2nc3ccccc3[nH]2)cc1`, the “scaled lipid accumulation score” value is inactive: ≤ -0.009 under setting [5] and inactive: ≤ 0 under setting [4].

As to `O=C(/C=C/c1ccc(CN(CCO)CCc2c[nH]c3ccccc23)cc1)NO` [LAQ824 (Dacinostat)], the “scaled lipid accumulation score” value is inactive: 0.742 under setting [5] and inactive: 0.578 under setting [4].
